This note sets out measurements from ChEMBL document CHEMBL4888484, “Replenishing the malaria drug discovery pipeline: Screening and hit evaluation of the MMV Hit Generation Library 1 (HGL1) against asexual blood stage Plasmodium falciparum ,using a nano luciferase reporter read-out” (2022).

About 540 (0.36%) of roughly 150,000 compounds showed an effect of 50% or more. Some of the results follow.

The assay deals with Plasmodium falciparum. The assay can be described thus: Primary screen in NF54 nanoGlo assay, in single point, at 2uM, 72h; a lower Z score goes with more inhibition. Format: functional, Erythrocyte. Particulars: timepoint 72 hour.
Usually % Inhibition stands for the drop in the measured response relative to a control, in per cent. `Cc1ccc([C@H]2NS(=O)(=O)NC2=N)cc1`: the “% Inhibition” value was -5% and the Z score amounted to 0.98.
The corresponding values for `CCCN1CCN(c2ncc(F)c(NC)n2)C[C@@H](O)C1` are -5% and 0.85.
The corresponding values for `O=C(Nc1ccon1)c1cc(S(=O)(=O)N2CCCCC2)ccc1F` are -3% and 0.31.
The corresponding values for `CC(C)(C)NC(=O)Cn1nnc(-c2ccc3c(c2)OCO3)n1` are 3% and -0.3.
In the case of `CCc1cccc2c([C@H](CC(=O)NCc3ccco3)c3ccc(OCc4ccccc4)cc3)c[nH]c12`, the “% Inhibition” value is reported as -9% and the Z score was determined as 1.02.
The corresponding values for `Cc1cnc(NC[C@H]2CCCCS2(=O)=O)nc1C` are -17% and 2.12.
For `Cc1cnn(CCN[C@@H](C)C(=O)NCC(F)(F)F)c1`, in that order: 6% and -0.82.
For `O=C(Nc1ccc2c(c1)OCO2)N1CCO[C@H](c2cccnc2)C1`, in that order: -9% and 1.36.
For `Fc1ccc(CN[C@@H](Cc2ccc(Cl)cc2)c2ccccn2)nc1`, the “% Inhibition” value is listed as -10% and the Z score is recorded as 1.51.
With `COCCN1CCN(C2CCN(c3ccc(-n4cccn4)cc3)CC2)CC1`, the “% Inhibition” value is -2% and the Z score is 0.25.
The corresponding values for `COc1ccccc1C1c2[nH]c3ccccc3c2C[C@H]2C(=O)N(CCc3ccc(F)cc3)CC(=O)N12` (some centres not stated) are 6% and -0.71.
Take `CCC(C)(NC(=O)C1CCCC(C(=O)O)C1)c1nc(C)cs1` (configuration not stated): the “% Inhibition” value amounted to 0% and the Z score was -0.02.
For `O=C(NCCNc1ncccn1)c1ccccn1`, in that order: -10% and 1.58.
The corresponding values for `Cc1ccc(C(=O)N2CCCN(c3cc(=O)n(C)c(=O)n3C)CC2)cc1F` are -4% and 0.64.
Turning to `COc1ccnc(CN(C)Cc2cnn(C(C)C)c2)c1OC`, the “% Inhibition” value was -7% and the Z score worked out at 0.98.
For `CCOc1cccc(CNC(=O)[C@@H]2CCN(C)S2(=O)=O)c1`, in that order: -31% and 3.35.
For `CS(=O)(=O)CC1CCCCN1C(=O)CC1C=CCCC1` (configuration not stated), in that order: -2% and 0.31.
For the molecule `O=C(N[C@H](c1cnc2ccccc2c1)C1CC(O)C1)[C@H]1CC[C@@H](O)CC1` (some centres not stated), the “% Inhibition” value is listed as -5% and the Z score was determined as 0.45.
The corresponding values for `Cc1cnc(CCN(C)Cc2nc(-c3cccs3)n[nH]2)s1` are -2% and 0.23.
The corresponding values for `Cc1cc2c(c(=O)n(-c3ccc(F)cc3)c(=O)n2CC(=O)Nc2ccccc2Cl)n1C` are -6% and 0.57.
For `COc1ccc(-c2c(-c3ccccc3)ncn2CCN2CCCC2=O)c(OC)c1`, in that order: -3% and 0.5.
In the case of `CC(=O)N1C[C@H]2CC[C@@H](C1)N(Cc1cnc(-c3ccc(Cl)cc3)nc1)C2`, the “% Inhibition” value is reported as -8% and the Z score is 1.24.
For `CN1CC(c2nc(-c3cccc(Cl)c3)no2)C(C(F)(F)F)C1` (configuration not stated), in that order: -2% and 0.36.
The corresponding values for `CCn1cc(CCn2ncc(C(F)(F)F)cc2=O)cn1` are -8% and 0.98.
The corresponding values for `CCCCS(=O)(=O)N1CC[C@H](O)[C@@H](O)C1` are -2% and 0.32.
Turning to `COCc1ccc(C(=O)N2CC3CCCC3C2)o1` (configuration not stated), the “% Inhibition” value was -14% and the Z score came out at 1.82.
For `CCCc1csc(NC(=O)NC[C@H](O)c2ccsc2)n1`, in that order: -10% and 1.49.
For `NC(=O)CO[C@@H]1CO[C@H]2[C@@H]1OC[C@@H]2NC(=O)c1cccs1`, in that order: 29% and -3.26.
For `CC1C(O)CC2CCC1N2C(C(=O)O)c1ccc(F)cc1` (configuration not stated), in that order: -4% and 0.46.
For the molecule `COC[C@H](C)NC(=O)CCc1c(C)noc1C`, the “% Inhibition” value turned out to be 1% and the Z score is listed as -0.12.
The corresponding values for `CN(Cc1c[nH]nc1C(C)(C)C)[C@@H]1COC[C@H]1O` are -3% and 0.37.
For `CN(C)CCc1nnc(NC(=O)Cc2cccnc2)s1`, in that order: -7% and 1.31.
For `CCN(CC)S(=O)(=O)c1ccc(N2CCOCC2)c(NC(=O)[C@@H]2CCCc3ccccc32)c1`, in that order: -2% and 0.35.
In the case of `CCOC(=O)C1(NCCn2cccn2)CCCCC1`, the “% Inhibition” value is -7% and the Z score worked out at 1.04.
For `COc1ccc(-c2cn3c(n2)CCC3)cc1`, in that order: -5% and 0.43.
Regarding `CC(C)CN=C1NC[C@H]2CN(C(=O)OC(C)(C)C)CCN12`, the “% Inhibition” value is given as 0% and the Z score was -0.06.
The corresponding values for `Cc1ccc(CN2CCCn3nc(C(=O)NCCC(=O)NCCN4CCOCC4)cc3C2=O)cc1` are -3% and 0.43.
For `Cc1cc(NC(=O)C(C)(C)S(C)(=O)=O)ccc1N1CCCC1`, in that order: -7% and 1.1.
For the molecule `CCc1nc(CNc2cc(C(=O)OC)cc(F)c2C)n[nH]1`, the “% Inhibition” value was -9% and the Z score turned out to be 1.4.
The corresponding values for `O=C(Cn1cnc2ccccc21)N1CCCC[C@@H]1CCn1ccnc1` are -3% and 0.48.
With `CN1C(=O)[C@](C)(C(=O)N2CCOCC2)Oc2cccnc21`, the “% Inhibition” value was -1% and the Z score is 0.13.
Consider `Cc1ccc(CC#N)cc1Br`, for which the “% Inhibition” value is on record as -7% and the Z score worked out at 0.69.
The corresponding values for `CCN(CC)S(=O)(=O)NC(=O)CCc1ccc(Cl)s1` are -5% and 0.57.
The corresponding values for `Cc1cccc(Oc2nc(N3CCCCC3)nc3c2CN(C(=O)OCc2ccccc2)CC3)c1` are 39% and -3.78.
In the case of `CS(=O)(=O)C1(C(=O)N(Cc2ccccc2)C2CC2)CCCC1`, the “% Inhibition” value worked out at 8% and the Z score was -1.62.
The corresponding values for `Cc1cc(C)cc(NC(=O)C23CCC(C)(C(=O)C2=O)C3(C)C)c1` (configuration not stated) are 9% and -1.39.
With `Cc1ccc(OCC(=O)NCCCN(Cc2cccnc2)C(=O)OC(C)(C)C)c(C)c1`, the “% Inhibition” value is given as -1% and the Z score was 0.12.
For `Cn1cc(C(=O)N2C[C@@H]3CS(=O)(=O)C[C@@H]3C2)c(-c2ccoc2)n1`, in that order: 3% and -0.33.
The corresponding values for `CC(C)Cc1nc(C(=O)N[C@H]2Cc3ccccc3N(C)C2=O)cs1` are 6% and -0.9.
The corresponding values for `Cc1nn(C)c(C)c1C(=O)N1CCC(OCc2ncon2)CC1` are -3% and 0.33.
As for `CCC(C)C1NC2(CCN(C(=O)c3ccc(C)cc3)CC2)N(C2CCN(Cc3ccccc3)CC2)C1=O` (configuration not stated), the “% Inhibition” value came out at 2% and the Z score was -0.25.
With `COc1ccc(CCN2C(=O)COCC2=O)cc1OC`, the “% Inhibition” value is reported as 36% and the Z score is given as -4.12.
For `Cc1noc(C)c1CCC(=O)N[C@H]1CCc2c[nH]nc2C1`, in that order: 0% and -0.08.
In the case of `CCn1cnnc1NC(=O)c1ccoc1C(C)C`, the “% Inhibition” value is on record as -4% and the Z score turned out to be 0.64.
For `Cn1cnc(CNC(=O)[C@@H]2CCCC[C@@H]2N2CCCC2=O)c1`, in that order: -9% and 1.06.
The corresponding values for `Cc1cccc(NC(=O)[C@@H]2CCCN2CCCn2ccnc2C)n1` are -5% and 0.64.
For `Cc1nn(C(C)C)cc1-c1cccc(C(=O)N[C@@H](CC(C)C)C(N)=O)c1`, in that order: -8% and 1.06.
As to `OC1CCCC(CNC(c2ccc(Br)cc2)C2CC2)C1` (configuration not stated), the “% Inhibition” value is reported as 1% and the Z score was -0.12.
As for `CCOC(=O)N1CCN(C(=O)c2cn3c(n2)CC[C@H](c2ccccc2)C3)CC1`, the “% Inhibition” value is -10% and the Z score was 1.01.
For `C[C@@H](C1CC1)N(C)S(=O)(=O)Cc1ccc2nonc2c1`, in that order: -9% and 1.49.
As to `COCc1nc([C@H]2CCOC2)cc(N(C)Cc2cc(C3CC3)[nH]n2)n1`, the “% Inhibition” value was 3% and the Z score is on record as -0.64.
As to `CNc1nc([C@H]2CCOC2)cc(N2CCN(Cc3nccn3C)CC2)n1`, the “% Inhibition” value is on record as -7% and the Z score was 0.8.
In the case of `COc1ccccc1C1CN(C(=O)c2ccc(C)cc2)CC1C(=O)N1CCOCC1` (configuration not stated), the “% Inhibition” value is given as -21% and the Z score is on record as 1.85.
The corresponding values for `O=C(Nc1ccc(Cl)cc1)c1ccc2c3c(cccc13)CC2` are 5% and -0.63.
For `Cc1noc(C)c1C(=O)Nc1ccc2c(c1)N(C)S(=O)(=O)N2C`, in that order: 6% and -0.72.
Turning to `Cc1cc(C)cc(S(=O)(=O)N2CCN=C2N2CCN(C)CC2)c1`, the “% Inhibition” value is -9% and the Z score stood at 1.02.
For `CC(O)C1CCCN(C(=O)C2Cc3ccccc3CN2S(=O)(=O)c2cccs2)C1` (configuration not stated), in that order: -11% and 1.07.
For `CNC(=O)[C@H](Cc1ccccc1)n1cc(C(=O)OC)c2nnc(O)c-2c1`, in that order: -2% and 0.28.
The corresponding values for `CCCN1CCC[C@H]1CNC(=O)c1nc[nH]c1C(F)(F)F` are 0% and 0.
Take `CCc1sc(C(=O)NCc2cccnc2N2CCOCC2)cc1C`: the “% Inhibition” value was -13% and the Z score was 1.74.
For `Cc1occc1C(=O)N[C@H]1CCCc2c1cnn2-c1ccc(C(C)(C)C)cc1`, in that order: -11% and 1.36.
The corresponding values for `CC1=CCN(C(=O)Nc2ccc(F)cc2)CC1` are 23% and -2.59.
On to `COCC1(C(=O)N2CCNC[C@@H]2C)CCC1`, for which the “% Inhibition” value is reported as 5% and the Z score is given as -0.85.
The corresponding values for `COc1cc(NC(=O)c2ccc3c(c2)OCO3)ccc1N1CCCCC1=O` are -9% and 1.44.
The corresponding values for `O=C(c1c[nH]nc1-c1ccoc1)N1CCOCC(F)(F)C1` are -2% and 0.43.
For `COc1cccc2c(N3CC[C@H](C4CCOCC4)C3)nccc12`, in that order: -3% and 0.5.
In the case of `COc1ccc2c(c1)-c1nc(-n3ncc(C(=O)N4CCC(C(N)=O)CC4)c3C3CC3)ncc1CC2`, the “% Inhibition” value was -5% and the Z score is on record as 0.7.
For `O=C(N[C@H](c1ccccn1)C(F)(F)F)c1cnn[nH]1`, in that order: 2% and -0.37.
With `CCNC(=NCCc1cccc(OC)n1)NCC`, the “% Inhibition” value was -1% and the Z score worked out at 0.07.
For `O=C(O)c1cc(S(=O)(=O)Nc2cccc3c2CCCC3)c[nH]1`, in that order: -2% and 0.48.
The corresponding values for `O=C(NCc1cnc2n1CCCC2)[C@H]1CCO[C@@H]1c1cccnc1` are 0% and 0.01.
For the molecule `CN1CC2(CCN(Cc3ccccn3)CC2)C[C@@H](c2ccccc2)C1=O`, the “% Inhibition” value is on record as 2% and the Z score is reported as -0.45.
For `O=C(NCc1ccccc1C(F)(F)F)C1CCN(c2cnc3nccnc3c2)CC1`, in that order: -2% and 0.3.
As for `COc1ccc(C(=O)NS(C)(=O)=O)cc1OC`, the “% Inhibition” value amounted to 4% and the Z score is recorded as -0.58.
For `O=C(N[C@H]1COCC[C@@H]1O)c1cncc(Cl)c1`, in that order: -6% and 0.98.
Consider `Nc1nc(NS(=O)(=O)c2ccccc2)cc2ncnn12`, for which the “% Inhibition” value is reported as -33% and the Z score turned out to be 3.85.
